Test results: paper PMC4336329 (PLoS ONE, 2015)
The whole screen tested about 310,000 compounds, of which about 14,000 (4.5%) showed an effect of 50% or more. The effect is printed as a negative number. The list shows a part of the results.

These molecules were tested against human ether-à-go-go-related gene (hERG) potassium channel (human, UniProt Q12809) (assay: primary screen, population patch clamp on CHO cells stably expressing hERG).
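Also: peak tail current of the secondary pulse compared with the same well before compound.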

human ether-à-go-go-related gene (hERG) potassium channel, sequence (Q12809 whole entry, looked up): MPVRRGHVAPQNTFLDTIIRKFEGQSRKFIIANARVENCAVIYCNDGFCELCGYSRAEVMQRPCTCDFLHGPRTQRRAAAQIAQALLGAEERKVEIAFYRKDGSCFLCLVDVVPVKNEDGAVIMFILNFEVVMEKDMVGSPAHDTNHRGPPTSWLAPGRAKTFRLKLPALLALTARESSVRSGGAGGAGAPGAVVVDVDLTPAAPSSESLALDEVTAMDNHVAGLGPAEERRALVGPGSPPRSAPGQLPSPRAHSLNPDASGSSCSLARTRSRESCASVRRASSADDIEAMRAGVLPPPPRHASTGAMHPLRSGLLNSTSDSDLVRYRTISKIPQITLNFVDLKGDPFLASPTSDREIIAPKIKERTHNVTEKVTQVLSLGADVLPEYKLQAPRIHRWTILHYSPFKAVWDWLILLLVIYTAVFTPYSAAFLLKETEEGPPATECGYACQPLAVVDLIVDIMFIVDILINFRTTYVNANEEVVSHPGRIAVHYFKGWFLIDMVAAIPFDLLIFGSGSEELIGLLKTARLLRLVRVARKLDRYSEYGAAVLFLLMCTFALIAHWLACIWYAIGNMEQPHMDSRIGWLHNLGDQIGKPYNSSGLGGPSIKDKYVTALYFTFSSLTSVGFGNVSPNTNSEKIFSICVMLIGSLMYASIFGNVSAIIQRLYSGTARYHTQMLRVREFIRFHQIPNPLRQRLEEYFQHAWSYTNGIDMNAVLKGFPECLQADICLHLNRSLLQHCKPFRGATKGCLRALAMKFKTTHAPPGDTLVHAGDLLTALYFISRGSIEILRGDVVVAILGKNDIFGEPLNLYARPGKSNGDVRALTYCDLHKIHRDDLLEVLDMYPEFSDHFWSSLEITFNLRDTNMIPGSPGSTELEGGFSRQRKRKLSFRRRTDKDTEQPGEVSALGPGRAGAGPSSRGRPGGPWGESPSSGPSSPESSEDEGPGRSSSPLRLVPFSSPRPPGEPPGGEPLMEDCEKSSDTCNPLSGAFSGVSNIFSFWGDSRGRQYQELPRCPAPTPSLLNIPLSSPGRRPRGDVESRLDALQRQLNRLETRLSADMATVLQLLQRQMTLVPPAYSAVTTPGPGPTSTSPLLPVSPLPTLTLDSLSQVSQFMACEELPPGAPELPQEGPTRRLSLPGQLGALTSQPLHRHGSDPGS

Structure (SMILES)	hERG current change (%, negative = inhibition) at 10uM [%]
Cc1[nH]c2ccccc2c1C(=O)COc1ccccc1F	10.7
Cc1ccc(C(=O)Nc2nccs2)s1	11.7
Cc1ccc(S(=O)(=O)c2nc(S(C)(=O)=O)sc2N2CCN(C)CC2)cc1	11.4
CCOCCCNC(=O)C1CCN(S(=O)(=O)N2CCCC2)CC1	25
Cc1nc2sc(-c3ccccc3)cc2c(=O)n1N	13.4
Cc1ccc2[nH]c(=O)c(CN(Cc3ccco3)C(=O)c3ccncc3)cc2c1	-43.4
O=c1c2c3c(sc2n2c(=S)[nH]nc2n1-c1ccccc1)CCC3	12.5
COC(=O)CC1C(=O)NCCN1C(=O)c1ccccc1 (stereo not shown)	14.3
C=CCc1cccc2cc(C(=O)OCC)c(=O)oc12	-42.3
CC1(C)CC(N(Cc2ccco2)C(=O)Cc2ccccc2)CCO1 (stereo not shown)	5.11
CCOc1ccc(CN2CCN(Cc3cccc4c3OCO4)CC2CCO)cc1 (stereo not shown)	-77.4
COC(=O)c1cc(NC(=O)Cc2coc3cc(OC)ccc23)cc(C(=O)OC)c1	0.0647
COC(=O)c1ccc(Sc2ccccn2)c([N+](=O)[O-])c1	-12
N#CCCN(C(=O)COC(=O)c1ccc2c(=O)n3c(nc2c1)CCC3)c1ccc(F)cc1	-17.2
COC(=O)c1cc(OC)c(OC)cc1-n1cnc2cc(OC)c(OC)cc2c1=O	19.5
CCC(=Nc1ccccc1OC)C1=C(O)CC(c2ccccc2)CC1=O (stereo not shown)	-0.0823
C=CCN1C(=O)C2(OCCCO2)c2cc(Cl)ccc21	-0.735
Cc1[nH]c2ccccc2c(=O)c1CN1CCCCC1	-5.58
CCO[C@@H]1OC(C(=O)NCc2ccccc2)=C[C@H](c2coc3ccccc3c2=O)[C@H]1CCCO	-47.5
Cc1ccc2c(c1)N(Cc1ccncc1)C(=O)C(C)O2 (stereo not shown)	-20.3
CC(Oc1ccc(F)cc1)C(=O)Nc1cc(S(=O)(=O)N2CCOCC2)ccc1N1CCCC1 (stereo not shown)	13.7
CCn1cc(C(=O)NCCc2ccccc2)c(=O)c2cc(F)c(N3CCN(C)CC3)cc21	-23.9

Structure (SMILES)	hERG current change (%, negative = inhibition) at 10uM [%]
COc1cc(OC)cc(C(=O)Nc2ccc(Br)cc2C(=O)c2ccccc2)c1	10.5
Cc1ccc2[nH]c(=O)c(CN(C(=O)c3cccc([N+](=O)[O-])c3)C(C)(C)C)cc2c1	9.79
CC(C)CN1C2CCCC1CC(NC(=O)c1ccc([N+](=O)[O-])cc1)C2 (stereo not shown)	-78.3
CC(C)c1cc(-c2cc(-c3ccccc3)on2)nc(NC2CCCC2)n1	6.4
Cc1cccc(NC(=O)CN(C)C(=O)C2CC2)c1C	17.6
CCCCCN(C(=O)CCC(=O)OCc1ccc(C(C)(C)C)cc1)c1c(N)n(CCCC)c(=O)[nH]c1=O	-8.09
CCOC(=O)/C=C/C(=O)OCC(=O)NCc1ccccc1	14.7
Cc1ccc(OCCCC(=O)Nc2ccc(Br)cc2)cc1	17.2
Cc1cc(C)c(S(C)(=O)=O)c(=O)[nH]1	30.8
COCCN1CCN(C(=O)c2cc(COc3ccc(F)c(F)c3)on2)CC1	-3.01
O=C(COc1ccc(F)cc1F)NNC(=O)Nc1cccc([N+](=O)[O-])c1	-9.49
Cc1cc(OCC(=O)N2CCC(C(=O)O)CC2)c2c(C)c(C)c(=O)oc2c1	19.4
Cc1cc(C)n2nc(SCC(=O)NC(=O)c3ccccc3Cl)nc2n1	0.516
Cc1nc(Nc2ccccc2F)c2oc3ccccc3c2n1	-10.8
COc1ccccc1S(=O)(=O)Cc1ccc(C(=O)NCCN2CCCCCC2)o1	2.78
Cn1ncc(C(=O)N=S(C)(=O)c2ccccc2)c1[N+](=O)[O-] (stereo not shown)	11.4
CCOc1cccc(Nc2ccc([N+](=O)[O-])cn2)c1	11.8
O=C(Nc1ccncc1)c1cc(-c2ccccn2)nc2ccccc12	8.94
Cc1ccc(OCC(=O)OCC(=O)N2c3ccccc3CC2C)cc1C (stereo not shown)	7.96
COC(=O)C(Cc1ccccc1)NC(=O)c1ccc(NS(=O)(=O)c2ccc3[nH]c(=O)[nH]c3c2)cc1 (stereo not shown)	16.5
CC1(C)C=Cc2cc(-c3coc4cc(O)cc(O)c4c3=O)cc(O)c2O1	-1.02
CCOc1ccc(CCNC(=O)C2CCCN2C(=O)OCc2ccccc2)cc1OCC (stereo not shown)	2.19

Structure (SMILES)	hERG current change (%, negative = inhibition) at 10uM [%]
O=C(COC(=O)C12CC3CC(CC(Br)(C3)C1)C2)N1CCOCC1	2.25
Nn1c(SCc2ccccc2)nnc1C1CCCCC1	7.68
Cc1ccccc1OCCNC(=O)CSc1ccc(C(F)(F)F)cc1[N+](=O)[O-]	10.6
COc1ccccc1C(CNC(=O)c1ccc(OCc2c(C)noc2C)cc1)N1CCCC1 (stereo not shown)	-19.9
C[C@H](NCCc1ccc(O)cc1)[C@H](O)c1ccc(O)cc1.Cl	6.27
Cc1cc(=O)oc2cc(OCC(=O)OCc3nnc(-c4ccccc4)o3)ccc12	14.3
CC(C)C(NC(=O)c1ccccc1)C(=O)N1CCCCCC1 (stereo not shown)	27.3
CC(=O)N1CCC(N(CCN2CCOCC2)C(=S)Nc2ccc(C)cc2)CC1	-6.52
CNS(=O)(=O)c1cccc(C(=O)OCC(=O)c2cc3ccccc3o2)c1	15.2
COC(=O)NN1C(=O)C(c2ccccc2)=C(c2ccc(Cl)cc2)C1=O	-5.88
O=C(c1ccco1)N1CCN(C(c2ccc(Cl)cc2)c2nnnn2Cc2ccccc2)CC1 (stereo not shown)	-68.2
Cc1ccc(C(=O)N(CC(=O)NC2CCCCC2)c2ccccc2F)s1	-13.9
COc1cccc(N2CCN(c3ccc4nnc(CCC(=O)Nc5ccc(F)cc5F)n4n3)CC2)c1	-38.2
O=S(=O)(/N=C(/c1ccc(F)cc1)N1CCCCC1)c1ccc(Cl)cc1	-11.5
CCCCN(C(=O)CSc1nnnn1C)c1c(N)n(Cc2ccccc2)c(=O)[nH]c1=O	7.29
Cc1nc2cc(-c3ccccc3)nn2c(C)c1CCC(=O)N1CCC2(CC1)OCCO2	-47.2
FC(F)(F)c1cccc(OCc2noc(-c3ccsc3)n2)c1	-3.78
COc1ccc(OC)c(NC(=O)c2cccnc2)c1	17.4
CCCCN(Cc1ccc(C(=O)N[C@H](C(=O)O)C(C)C)cc1)C(=O)C(c1ccccc1)c1ccccc1	1.77
Cc1c(C#N)c2ncnc(N)c2n1-c1ccccc1	5.64
CCN(c1ccccc1)S(=O)(=O)c1cc(CN2C(=O)c3cccnc3C2=O)ccc1OC	-14.2
O=C(NCc1ccccc1)N[C@@H](Cc1c[nH]c2ccccc12)C(=O)O	0.657

Structure (SMILES)	hERG current change (%, negative = inhibition) at 10uM [%]
CCNc1nnc(-c2ccccc2OC)s1	-16.4
O=C(NCc1ccccn1)Nc1ccc2c(c1)OCO2	20.2
Cn1c(=O)oc2cc(S(=O)(=O)N3CCCC3)ccc21	10.3
Fc1ccc(/C=N/N2CCOCC2)c(F)c1	54.5
COC(=O)C1=C(C(=O)OC)C(c2cc(Br)ccc2O)c2sc(=O)[nH]c2S1 (stereo not shown)	-47.6
COC(=O)c1cc(S(=O)(=O)NCCc2ccc(SC)cc2)c[nH]1	-2.63
O=c1[nH]c(N2CCOCC2)cc2ccccc12	2.45
O=C1CCC(C(=O)Nc2cccc(S(=O)(=O)N3CCOCC3)c2)N1 (stereo not shown)	-6.26
COc1ccc(NC(=O)CC2C(=O)N(c3ccccc3)C(=O)N2Cc2ccco2)cc1 (stereo not shown)	-19.3
Cc1cc(Cl)ccc1OCC(=O)N/N=C/c1ccncc1	-14.9
CC(C)COc1ccc(-c2nnn(CC(=O)N3CCCC3)n2)cc1	-3.91
CC(=O)c1oc2ccccc2c1NC(=O)COC(=O)c1ccc(-n2nc(C)cc2C)cc1	27.4
O=C(N/N=C1\CCCc2ccccc21)C(O)c1ccccc1 (stereo not shown)	-23.9
Cc1ccc(CNC(=O)C(OC(=O)c2cccs2)C(C)C)cc1 (stereo not shown)	-2.43
CN(C)c1ccc(C(=O)OCC(=O)N2CCOCC2)cc1	2.21
COc1ccccc1Oc1ncnc2c1cnn2-c1ccccc1	8
CNC(=S)N1C2CCC1CC(NC(=O)NC13CC4CC(CC(C4)C1)C3)C2 (stereo not shown)	-1.23
O=C(Nc1nc(-c2cccnc2)cs1)c1ccc([N+](=O)[O-])cc1	-4.99
CN(Cc1c(C(=O)N/N=C/c2cccc(O)c2)nnn1-c1nonc1N)c1ccccc1	-0.896
COc1ccc2c(c1)c1ncn(Cc3ccccn3)c(=O)c1n2C	-4.74
Cc1ccc(NC(=O)/C=C/c2cccc(C(F)(F)F)c2)cc1	16.8
COc1cccc(OC)c1OCC(O)CN1CCN(c2ccccc2F)CC1.Cl (stereo not shown)	-12.2
